Assay results: patent US20240034795A1 (Innovent, published 2024)

Key:
[1] = target: T1, human FcRn (Cat. No. CT009-H08H, Lot No. LC120C3101, Sino biological) (human, UniProt P55899 fragment; P61769 fragment); assay: BLI (Fortebio Octet Red96), 100 nM FcRn loaded on HIS1K sensors, antibody 0-100 nM in solution
T1 construct: Bought reagent

[2] = target: T1, human FcRn (Cat. No. CT009-H08H, Lot …); assay: BLI (Fortebio Octet Red96), FcRn on HIS1K sensors

- koff [1]: 0.00842 s⁻¹
- kon [1]: 591000 M⁻¹ s⁻¹
- fold difference of KD against control antibody IgG1 (adalimumab) [2]: 1.4 fold
B1: HDM-006 (Fc fusion)
heavy: QVQLQQPGAELVKPGASVKMSCKASGYTFTSYNMHWVKQTPGRGLEWIGAIYPGNGDTSYNQKFKGKATLTADKSSSTAYMQLSSLTSEDSAVYYCARSTYYGGDWYFNVWGAGTTVTVSAASTKGPSVFPLAPSSKSTSGGTAALGCLVKDYFPEPVTVSWNSGALTSGVHTFPAVLQSSGLYSLSSVVTVPSSSLGTQTYICNVNHKPSNTKVDKKV[gap - human IgG1 Fc with L234A L235A S364R D399K (EU numbers)]
light: QIVLSQSPAILSASPGEKVTMTCRASSSVSYIHWFQQKPGSSPKPWIYATSNLASGVPVRFSGSGSGTSYSLTISRVEAEDAATYYCQQWTSNPPTFGGGTKLEIKRTVAAPSVFIFPPSDEQLKSGTASVVCLLNNFYPREAKVQWKVDNALQSGNSQESVTEQDSKDSTYSLSSTLTLSKADYEKHKVYACEVTHQGLSSPVTKSFNRGEC
chain: APASSSTKKTQLQLEHLLLDLQMILNGINNYKNPELEEMLTAKFYMPKKATELKHLQCLEEELKPLEEVLNLAGDASIHDLISNINVIVLELKGSETTFMCEYADETATIVEFLNRWITFSQSIISTLTGGGGSGGGGSDKTHTCPPCPAPEAAGGPSVFLFPPKPKDTLMISRTPEVTCVVVDVSHEDPEVKFNWYVDGVEVHNAKTKPREEQYNSTYRVVSVLTVLHQDWLNGKEYKCKVSNKALPAPIEKTISKAKGQPREPQVTTLPPSRDELTKNQVSLTCLVSGFYPSDIAVEWESNGQPENNYKTTPPVLDSDGSFFLYSDLTVDKSRWQQGNVFSCSVMHEALHNHYTQKSLSLSPGK
notes: also called Fc mutant (HDM-006); Fc heterodimer
